The record followed here is paper PMC3709894.

No constants are given. Whether binding was seen depends on the method and setting. Binding seen in cells or lysates may run through a third protein. Some results given as binding are weak or reduced against the parent protein; the word gives no strength. Sequences can lack the tags named with a protein.

The target of test [1] is T1, Flag-Rad21 Del(383–392 aa), full length devoid of 383–392 aa (human) (UniProt O60216).
T1 sequence: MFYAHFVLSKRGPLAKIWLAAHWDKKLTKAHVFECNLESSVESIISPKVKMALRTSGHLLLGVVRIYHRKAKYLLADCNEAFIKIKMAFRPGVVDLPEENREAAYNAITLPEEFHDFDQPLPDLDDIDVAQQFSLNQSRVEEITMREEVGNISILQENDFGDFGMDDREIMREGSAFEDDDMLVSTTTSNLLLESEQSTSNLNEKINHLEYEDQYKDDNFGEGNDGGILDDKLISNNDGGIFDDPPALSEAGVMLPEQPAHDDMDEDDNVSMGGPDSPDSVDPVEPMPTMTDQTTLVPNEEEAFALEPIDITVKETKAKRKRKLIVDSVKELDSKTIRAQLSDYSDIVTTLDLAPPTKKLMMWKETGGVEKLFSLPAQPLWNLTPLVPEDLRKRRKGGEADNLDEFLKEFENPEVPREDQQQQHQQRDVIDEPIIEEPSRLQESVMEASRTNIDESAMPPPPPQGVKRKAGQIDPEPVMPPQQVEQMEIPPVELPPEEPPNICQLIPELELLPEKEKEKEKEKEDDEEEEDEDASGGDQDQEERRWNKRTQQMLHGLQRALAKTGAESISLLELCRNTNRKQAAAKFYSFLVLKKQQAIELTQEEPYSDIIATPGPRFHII
The test is described as follows: co-IP; 293 T cells co-expressing Flag- and Myc-tagged copies of Rad21 WT or of the same mutant; IP with Flag mAb or Myc pAb agarose beads.

In test [2] the target is T2, Myc-Rad21 WT in pCS2MT (human), O60216.
T2 chain: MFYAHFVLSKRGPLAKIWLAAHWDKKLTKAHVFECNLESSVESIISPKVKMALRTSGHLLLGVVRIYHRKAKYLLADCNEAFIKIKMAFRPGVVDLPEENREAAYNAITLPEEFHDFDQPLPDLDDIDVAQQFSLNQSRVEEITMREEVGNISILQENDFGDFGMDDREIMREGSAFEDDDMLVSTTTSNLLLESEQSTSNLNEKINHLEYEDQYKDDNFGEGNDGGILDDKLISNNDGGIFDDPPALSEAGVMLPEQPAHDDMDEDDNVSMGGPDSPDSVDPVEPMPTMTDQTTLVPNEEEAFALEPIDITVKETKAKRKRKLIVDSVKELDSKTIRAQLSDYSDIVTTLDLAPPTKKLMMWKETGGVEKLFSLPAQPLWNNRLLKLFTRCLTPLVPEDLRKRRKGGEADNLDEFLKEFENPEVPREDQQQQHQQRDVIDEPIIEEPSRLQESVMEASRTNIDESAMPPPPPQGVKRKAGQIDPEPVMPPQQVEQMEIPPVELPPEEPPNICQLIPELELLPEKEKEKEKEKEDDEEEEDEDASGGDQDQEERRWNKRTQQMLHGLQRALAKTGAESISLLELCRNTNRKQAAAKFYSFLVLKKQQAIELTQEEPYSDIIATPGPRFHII
The test is described as follows: co-IP; 293 T cells transfected with Myc-Rad21 WT or mutants; IP from whole cell lysate, blots of endogenous cohesin subunits including endogenous Rad21. The conditions noted are these: remark: other sources report otherwise.

The target in test [3] is T3, Flag-Rad21 WT (full length) in pFlag CMV2 (human), O60216.
T3 chain: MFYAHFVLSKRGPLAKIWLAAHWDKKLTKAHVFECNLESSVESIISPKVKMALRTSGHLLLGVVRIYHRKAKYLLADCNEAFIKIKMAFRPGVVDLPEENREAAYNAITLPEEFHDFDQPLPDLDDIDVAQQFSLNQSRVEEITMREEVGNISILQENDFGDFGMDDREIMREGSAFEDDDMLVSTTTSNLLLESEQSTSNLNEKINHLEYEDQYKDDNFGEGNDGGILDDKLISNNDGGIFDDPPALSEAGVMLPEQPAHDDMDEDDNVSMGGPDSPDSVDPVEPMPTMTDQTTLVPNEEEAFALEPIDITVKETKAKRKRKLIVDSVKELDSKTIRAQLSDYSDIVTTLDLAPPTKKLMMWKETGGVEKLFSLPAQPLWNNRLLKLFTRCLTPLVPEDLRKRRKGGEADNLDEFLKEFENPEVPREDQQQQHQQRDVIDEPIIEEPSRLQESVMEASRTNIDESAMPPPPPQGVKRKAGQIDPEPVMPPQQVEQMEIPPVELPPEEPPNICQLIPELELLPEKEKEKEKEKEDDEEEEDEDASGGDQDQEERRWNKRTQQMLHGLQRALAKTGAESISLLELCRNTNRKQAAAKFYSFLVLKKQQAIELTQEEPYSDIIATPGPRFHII
The test is described as follows: co-IP; 293 T cells co-expressing Flag- and Myc-tagged copies of Rad21 WT or of the same mutant; IP with Flag mAb or Myc pAb agarose beads. The conditions noted are these: remark: other sources report otherwise.

B1: Flag-Rad21 Del(383–392 aa), full length devoid of 383–392 aa (protein, UniProt O60216)
chain: MFYAHFVLSKRGPLAKIWLAAHWDKKLTKAHVFECNLESSVESIISPKVKMALRTSGHLLLGVVRIYHRKAKYLLADCNEAFIKIKMAFRPGVVDLPEENREAAYNAITLPEEFHDFDQPLPDLDDIDVAQQFSLNQSRVEEITMREEVGNISILQENDFGDFGMDDREIMREGSAFEDDDMLVSTTTSNLLLESEQSTSNLNEKINHLEYEDQYKDDNFGEGNDGGILDDKLISNNDGGIFDDPPALSEAGVMLPEQPAHDDMDEDDNVSMGGPDSPDSVDPVEPMPTMTDQTTLVPNEEEAFALEPIDITVKETKAKRKRKLIVDSVKELDSKTIRAQLSDYSDIVTTLDLAPPTKKLMMWKETGGVEKLFSLPAQPLWNLTPLVPEDLRKRRKGGEADNLDEFLKEFENPEVPREDQQQQHQQRDVIDEPIIEEPSRLQESVMEASRTNIDESAMPPPPPQGVKRKAGQIDPEPVMPPQQVEQMEIPPVELPPEEPPNICQLIPELELLPEKEKEKEKEKEDDEEEEDEDASGGDQDQEERRWNKRTQQMLHGLQRALAKTGAESISLLELCRNTNRKQAAAKFYSFLVLKKQQAIELTQEEPYSDIIATPGPRFHII
With B1, the binding result in test [1] is “binds”.

B2: endogenous Rad21, O60216 1-631 (protein)
chain: MFYAHFVLSKRGPLAKIWLAAHWDKKLTKAHVFECNLESSVESIISPKVKMALRTSGHLLLGVVRIYHRKAKYLLADCNEAFIKIKMAFRPGVVDLPEENREAAYNAITLPEEFHDFDQPLPDLDDIDVAQQFSLNQSRVEEITMREEVGNISILQENDFGDFGMDDREIMREGSAFEDDDMLVSTTTSNLLLESEQSTSNLNEKINHLEYEDQYKDDNFGEGNDGGILDDKLISNNDGGIFDDPPALSEAGVMLPEQPAHDDMDEDDNVSMGGPDSPDSVDPVEPMPTMTDQTTLVPNEEEAFALEPIDITVKETKAKRKRKLIVDSVKELDSKTIRAQLSDYSDIVTTLDLAPPTKKLMMWKETGGVEKLFSLPAQPLWNNRLLKLFTRCLTPLVPEDLRKRRKGGEADNLDEFLKEFENPEVPREDQQQQHQQRDVIDEPIIEEPSRLQESVMEASRTNIDESAMPPPPPQGVKRKAGQIDPEPVMPPQQVEQMEIPPVELPPEEPPNICQLIPELELLPEKEKEKEKEKEDDEEEEDEDASGGDQDQEERRWNKRTQQMLHGLQRALAKTGAESISLLELCRNTNRKQAAAKFYSFLVLKKQQAIELTQEEPYSDIIATPGPRFHII
For the molecule B2, the binding result in test [2] is given as “binds”.

B3: Flag-Rad21 WT (full length) in pFlag CMV2, O60216 1-631 (protein)
chain: MFYAHFVLSKRGPLAKIWLAAHWDKKLTKAHVFECNLESSVESIISPKVKMALRTSGHLLLGVVRIYHRKAKYLLADCNEAFIKIKMAFRPGVVDLPEENREAAYNAITLPEEFHDFDQPLPDLDDIDVAQQFSLNQSRVEEITMREEVGNISILQENDFGDFGMDDREIMREGSAFEDDDMLVSTTTSNLLLESEQSTSNLNEKINHLEYEDQYKDDNFGEGNDGGILDDKLISNNDGGIFDDPPALSEAGVMLPEQPAHDDMDEDDNVSMGGPDSPDSVDPVEPMPTMTDQTTLVPNEEEAFALEPIDITVKETKAKRKRKLIVDSVKELDSKTIRAQLSDYSDIVTTLDLAPPTKKLMMWKETGGVEKLFSLPAQPLWNNRLLKLFTRCLTPLVPEDLRKRRKGGEADNLDEFLKEFENPEVPREDQQQQHQQRDVIDEPIIEEPSRLQESVMEASRTNIDESAMPPPPPQGVKRKAGQIDPEPVMPPQQVEQMEIPPVELPPEEPPNICQLIPELELLPEKEKEKEKEKEDDEEEEDEDASGGDQDQEERRWNKRTQQMLHGLQRALAKTGAESISLLELCRNTNRKQAAAKFYSFLVLKKQQAIELTQEEPYSDIIATPGPRFHII
Regarding B3, the binding result in test [3] was “binds”.
